Data taken from patent publication US20250213533A1 (GH RESEARCH IRELAND LIMITED, priority 2022, published 2025).

Tested on: patients with treatment-resistant major depressive disorder (TRD)
Experiment: Phase 1/2 clinical trial of inhaled 5-MeO-DMT in TRD patients (Part A single dose 12 or 18 mg; Part B IDR 6/12/18 mg)
Conditions: for patients with at least one ADR: Part A, n=4
[1] = IDR n=8, 2 hours after last dose
[2] = IDR n=8, 3 hours after last dose

## COc1ccc2[nH]cc(CCN(C)C)c2c1 [5-MeO-DMT]
12 mg n=4, 2 hours after dose
  MADRS Concentration Difficulties improvement, sum of patients: 9
  MADRS Concentration Difficulties score, sum of patients: 7
  MADRS Inability to Feel improvement, sum of patients: 7
  MADRS Inability to Feel score, sum of patients: 9
  MADRS Inner Tension score, sum of patients: 2
  MADRS Lassitude improvement, sum of patients: 6
  MADRS Lassitude score, sum of patients: 10
  MADRS Pessimistic Thoughts improvement, sum of patients: 8
  MADRS Pessimistic Thoughts score, sum of patients: 8
  MADRS Suicidal Thoughts improvement, sum of patients: 5
  MADRS Suicidal Thoughts score, sum of patients: 3
12 mg n=4, 3 hours after dose
  BPRS Blunted Affect improvement, sum of patients: 3
  BPRS Blunted Affect score, sum of patients: 8
  BPRS Emotional Withdrawal improvement, sum of patients: 2
  BPRS Guilt Feelings improvement, sum of patients: 9
  BPRS Guilt Feelings score, sum of patients: 9
  BPRS Tension improvement, sum of patients: 5
  BPRS Tension score, sum of patients: 9
12 mg n=4, baseline
  MADRS Suicidal Thoughts score, sum of patients: 8
12 mg n=4, day 1
  BPRS Anxiety score, sum of patients: 6
  BPRS Blunted Affect improvement, sum of patients: 5
  BPRS Blunted Affect score, sum of patients: 6
  BPRS Emotional Withdrawal improvement, sum of patients: 5
  BPRS Emotional Withdrawal score, sum of patients: 8
  BPRS Guilt Feelings score, sum of patients: 5
  BPRS Tension improvement, sum of patients: 8
  BPRS Tension score, sum of patients: 6
  MADRS Concentration Difficulties score, sum of patients: 2
  MADRS Inability to Feel score, sum of patients: 1
  MADRS Inner Tension improvement, sum of patients: 10
  MADRS Inner Tension score, sum of patients: 3
  MADRS Lassitude score, sum of patients: 0
  MADRS Pessimistic Thoughts improvement, sum of patients: 9
  MADRS Pessimistic Thoughts score, sum of patients: 7
  MADRS Reduced Sleep improvement, sum of patients: 2
  MADRS Reduced Sleep score, sum of patients: 10
  MADRS Suicidal Thoughts improvement, sum of patients: 3
  MADRS Suicidal Thoughts score, sum of patients: 5
12 mg n=4, day 7
  BPRS Anxiety score, sum of patients: 6
  BPRS Blunted Affect improvement, sum of patients: 6
  BPRS Blunted Affect score, sum of patients: 5
  BPRS Emotional Withdrawal improvement, sum of patients: 7
  BPRS Emotional Withdrawal score, sum of patients: 6
  BPRS Guilt Feelings score, sum of patients: 5
  BPRS Tension improvement, sum of patients: 8
  BPRS Tension score, sum of patients: 6
  MADRS Concentration Difficulties score, sum of patients: 3
  MADRS Inability to Feel score, sum of patients: 1
  MADRS Inner Tension improvement, sum of patients: 8
  MADRS Inner Tension score, sum of patients: 5
  MADRS Lassitude score, sum of patients: 3
  MADRS Pessimistic Thoughts improvement, sum of patients: 8
  MADRS Pessimistic Thoughts score, sum of patients: 8
  MADRS Reduced Sleep improvement, sum of patients: 6
  MADRS Reduced Sleep score, sum of patients: 6
  MADRS Suicidal Thoughts improvement, sum of patients: 1
  MADRS Suicidal Thoughts score, sum of patients: 7
[1]
  MADRS Lassitude score, sum of patients: 10
  MADRS Pessimistic Thoughts score, sum of patients: 7
  MADRS Suicidal Thoughts improvement, sum of patients: 8
  MADRS Suicidal Thoughts score, sum of patients: 3
[2]
  BPRS Blunted Affect improvement, sum of patients: 4
  BPRS Emotional Withdrawal improvement, sum of patients: 5
  BPRS Emotional Withdrawal score, sum of patients: 8
  BPRS Guilt Feelings improvement, sum of patients: 20
  BPRS Tension improvement, sum of patients: 5
IDR n=8, baseline
  BPRS Anxiety score, sum of patients: 37
  MADRS Concentration Difficulties score, sum of patients: 30
  MADRS Inability to Feel score, sum of patients: 36
  MADRS Inner Tension score, sum of patients: 26
  MADRS Lassitude score, sum of patients: 27
  MADRS Pessimistic Thoughts score, sum of patients: 28
IDR n=8, day 1
  BPRS Blunted Affect improvement, sum of patients: 7
  BPRS Blunted Affect score, sum of patients: 8
  BPRS Emotional Withdrawal improvement, sum of patients: 5
  BPRS Emotional Withdrawal score, sum of patients: 8
  BPRS Tension improvement, sum of patients: 5
  MADRS Concentration Difficulties score, sum of patients: 1
  MADRS Inability to Feel score, sum of patients: 2
  MADRS Inner Tension improvement, sum of patients: 20
  MADRS Inner Tension score, sum of patients: 6
  MADRS Lassitude score, sum of patients: 5
  MADRS Pessimistic Thoughts score, sum of patients: 4
  MADRS Suicidal Thoughts improvement, sum of patients: 10
  MADRS Suicidal Thoughts score, sum of patients: 1
IDR n=8, day 7
  BPRS Anxiety improvement, sum of patients: 20
  BPRS Blunted Affect improvement, sum of patients: 7
  BPRS Blunted Affect score, sum of patients: 8
  BPRS Emotional Withdrawal improvement, sum of patients: 5
  BPRS Emotional Withdrawal score, sum of patients: 8
  BPRS Guilt Feelings score, sum of patients: 10
  BPRS Tension improvement, sum of patients: 6
  BPRS Tension score, sum of patients: 10
  MADRS Concentration Difficulties score, sum of patients: 9
  MADRS Inability to Feel improvement, sum of patients: 30
  MADRS Inability to Feel score, sum of patients: 6
  MADRS Lassitude score, sum of patients: 3
  MADRS Pessimistic Thoughts score, sum of patients: 3
  MADRS Reduced Sleep score, sum of patients: 9
  MADRS Suicidal Thoughts improvement, sum of patients: 8
  MADRS Suicidal Thoughts score, sum of patients: 3
12 mg
  patients with at least one ADR: 3 of 4
18 mg
  patients with at least one ADR: 3 of 4
TRD patients
  induction of hypomania: no evidence of hypomania induction
